This passage reports binding signal results from publication PMC12820563, “FoxP3 forms a head-to-head dimer in vivo and stabilizes its multimerization on adjacent microsatellites”.

The list shows a part of the results.

The test deals with T1, MBP-FoxP1dN (Mus musculus, UniProt P58462 326-579).
T1 sequence: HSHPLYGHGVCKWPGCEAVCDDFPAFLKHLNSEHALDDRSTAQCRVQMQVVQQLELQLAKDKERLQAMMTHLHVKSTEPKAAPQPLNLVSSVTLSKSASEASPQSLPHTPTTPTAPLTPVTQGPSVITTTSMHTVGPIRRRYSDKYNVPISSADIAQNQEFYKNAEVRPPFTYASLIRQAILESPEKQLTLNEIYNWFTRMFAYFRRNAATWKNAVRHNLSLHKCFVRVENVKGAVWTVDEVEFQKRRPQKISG
Nature of the test: PD-seq (MBP pull-down with sequencing); 20 mM Tris-HCl pH 7.5, 100 mM NaCl, 1.5 mM MgCl2, 0.4 uM protein, 0.1 uM dsDNA library, 30 min, room temperature, amylose pull-down; high values mean tight binding. The following applies: protein: recombinant; tags: His6-MBP; chain copies: 2; dsDNA, one strand shown. The essentials:
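In Tris pH 7.5 buffer with NaCl and MgCl2, 0.4 µM His6-MBP-tagged mouse FoxP3 or FoxP1 fragment lacking the N-terminus, from E. coli, met 0.1 µM Klenow-filled double-stranded degenerate DNA library for 30 min at room temperature. Three washes on amylose resin followed capture of the complexes, then proteinase K release of DNA, PCR barcoding and Illumina sequencing. Binding is taken as pooled-replicate reads-per-million enrichment of pull-down relative to input.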
Regarding “GATGATTGTTCTCCCAGCTGATGAATTCAAATGATCGAGTAAACAAATTTTCCTAATCTTTCTGTTCAAGCGCCATCTAC”, the binding signal is 0.933 RPM ratio (pull-down/input).

Turning to “GATGATTGTTCTCCCAGCTGATGAATTGGCACCCTCGAGTAAACAAATTTTCCTAATCTTTCTGTTCAAGCGCCATCTAC”, the binding signal was 0.828 RPM ratio (pull-down/input).

In the case of “GATGATTGTTCTCCCAGCTGATGAATTACTGGTGTCGAGTAAACAAATTTTCCTAATCTTTCTGTTCAAGCGCCATCTAC”, the binding signal is 1.01 RPM ratio (pull-down/input).

As for “GATGATTGTTCTCCCAGCTGATGAATTCAAGTCCTCGAGTAAACAAATTTTCCTAATCTTTCTGTTCAAGCGCCATCTAC”, the binding signal is 0.759 RPM ratio (pull-down/input).

On to “GATGATTGTTCTCCCAGCTGATGAATTGGTCGCATCGAGTAAACAAATTTTCCTAATCTTTCTGTTCAAGCGCCATCTAC”, for which the binding signal was 1.16 RPM ratio (pull-down/input).

Regarding “GATGATTGTTCTCCCAGCTGATGAATTTTATTATTCGAGTAAACAAATTTTCCTAATCTTTCTGTTCAAGCGCCATCTAC”, the binding signal was 1.7 RPM ratio (pull-down/input).

For “GATGATTGTTCTCCCAGCTGATGAATTTCCATACTCGAGTAAACAAATTTTCCTAATCTTTCTGTTCAAGCGCCATCTAC”, the binding signal was 0.947 RPM ratio (pull-down/input).

Take “GATGATTGTTCTCCCAGCTGATGAATTACTTGCATCGAGTAAACAAATTTTCCTAATCTTTCTGTTCAAGCGCCATCTAC”: the binding signal was 1.48 RPM ratio (pull-down/input).

For the sequence “GATGATTGTTCTCCCAGCTGATGAATTCACTGCGTCGAGTAAACAAATTTTCCTAATCTTTCTGTTCAAGCGCCATCTAC”, the binding signal is 0.983 RPM ratio (pull-down/input).

In the case of “GATGATTGTTCTCCCAGCTGATGAATTGATGACGTCGAGTAAACAAATTTTCCTAATCTTTCTGTTCAAGCGCCATCTAC”, the binding signal is 1.06 RPM ratio (pull-down/input).

As for “GATGATTGTTCTCCCAGCTGATGAATTACCTTAATCGAGTAAACAAATTTTCCTAATCTTTCTGTTCAAGCGCCATCTAC”, the binding signal was 1.11 RPM ratio (pull-down/input).

Turning to “GATGATTGTTCTCCCAGCTGATGAATTGGACATCTCGAGTAAACAAATTTTCCTAATCTTTCTGTTCAAGCGCCATCTAC”, the binding signal is 0.801 RPM ratio (pull-down/input).

For the sequence “GATGATTGTTCTCCCAGCTGATGAATTAGGGATCTCGAGTAAACAAATTTTCCTAATCTTTCTGTTCAAGCGCCATCTAC”, the binding signal is 0.826 RPM ratio (pull-down/input).

As for “GATGATTGTTCTCCCAGCTGATGAATTGAATGGGTCGAGTAAACAAATTTTCCTAATCTTTCTGTTCAAGCGCCATCTAC”, the binding signal is 0.775 RPM ratio (pull-down/input).

In the case of “GATGATTGTTCTCCCAGCTGATGAATTTCGGACATCGAGTAAACAAATTTTCCTAATCTTTCTGTTCAAGCGCCATCTAC”, the binding signal is 0.958 RPM ratio (pull-down/input).

For “GATGATTGTTCTCCCAGCTGATGAATTACGCCGGTCGAGTAAACAAATTTTCCTAATCTTTCTGTTCAAGCGCCATCTAC”, the binding signal was 0.902 RPM ratio (pull-down/input).

Turning to “GATGATTGTTCTCCCAGCTGATGAATTGCATAATTCGAGTAAACAAATTTTCCTAATCTTTCTGTTCAAGCGCCATCTAC”, the binding signal was 1.36 RPM ratio (pull-down/input).

For the sequence “GATGATTGTTCTCCCAGCTGATGAATTTGCTCGGTCGAGTAAACAAATTTTCCTAATCTTTCTGTTCAAGCGCCATCTAC”, the binding signal is 0.87 RPM ratio (pull-down/input).
